The other results are listed elsewhere or left out.
How the values were obtained:
Assay in all cases: glycan array binding signal (z-score within array); higher = stronger binding
Conditions in all cases: glycan notation: IUPAC condensed, linker removed
[1] = target: Fuc(a1-2)Gal
Method in brief: (§1)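 Glycan array data were curated from 3228 arrays in the Consortium for Functional Glycomics database and kept only where the protein sequence was available. Glycan names were converted to IUPAC-condensed notation, and columns mapping to the same glycan were averaged. The binding signal is a within-array Z-score, averaged across arrays of the same protein sequence at different concentrations or buffers and across linkers. Negative Z-scores can be read as non-binding.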

[2] = target: Fuc(a1-2)Gal(b1-3)GalNAc
Method in brief: as §1

[3] = target: Fuc(a1-2)Gal(b1-3)GalNAc(a1-3)[Fuc(a1-2)]Gal(b1-4)Glc
Method in brief: as §1

[4] = target: Fuc(a1-2)Gal(b1-3)GalNAc(a1-3)[Fuc(a1-2)]Gal(b1-4)GlcNAc
Method in brief: as §1

[5] = target: Fuc(a1-2)Gal(b1-3)GalNAc(b1-3)Gal
Method in brief: as §1

[6] = target: Fuc(a1-2)Gal(b1-3)GalNAc(b1-3)Gal(a1-4)Gal(b1-4)Glc
Method in brief: as §1

[7] = target: Fuc(a1-2)Gal(b1-3)GalNAc(b1-4)[Neu5Ac(a2-3)]Gal(b1-4)Glc
Method in brief: as §1

[8] = target: Fuc(a1-2)Gal(b1-3)GlcNAc
Method in brief: as §1

[9] = target: Fuc(a1-2)Gal(b1-3)GlcNAc(b1-2)Man(a1-3)[Fuc(a1-2)Gal(b1-3)GlcNAc(b1-2)Man(a1-6)]Man(b1-4)GlcNAc(b1-4)GlcNAc
Method in brief: as §1

[10] = target: Fuc(a1-2)Gal(b1-3)GlcNAc(b1-2)Man(a1-3)[Fuc(a1-2)Gal(b1-3)GlcNAc(b1-2)Man(a1-6)]Man(b1-4)GlcNAc(b1-4)[Fuc(a1-6)]GlcNAc
Method in brief: as §1

[11] = target: Fuc(a1-2)Gal(b1-3)GlcNAc(b1-3)Gal(b1-4)Glc
Method in brief: as §1

[12] = target: Fuc(a1-2)Gal(b1-3)GlcNAc(b1-3)GalNAc
Method in brief: as §1

[13] = target: Fuc(a1-2)Gal(b1-3)GlcNAc(b1-3)[Fuc(a1-2)Gal(b1-3)GlcNAc(b1-6)]GalNAc
Method in brief: as §1

[14] = target: Fuc(a1-2)Gal(b1-3)GlcNAc(b1-3)[Fuc(a1-3)[Gal(b1-4)]GlcNAc(b1-6)]Gal(b1-4)Glc
Method in brief: as §1

[15] = target: Fuc(a1-2)Gal(b1-3)GlcNAc(b1-3)[Gal(b1-4)GlcNAc(b1-6)]Gal(b1-4)Glc
Method in brief: as §1

[16] = target: Fuc(a1-2)Gal(b1-3)GlcNAc(b1-3)[Neu5Ac(a2-6)Gal(b1-4)GlcNAc(b1-6)]Gal(b1-4)Glc
Method in brief: as §1

[17] = target: Fuc(a1-2)Gal(b1-3)GlcNAc6S
Method in brief: as §1

[18] = target: Fuc(a1-2)Gal(b1-3)[Fuc(a1-4)]GlcNAc
Method in brief: as §1

[19] = target: Fuc(a1-2)Gal(b1-3)[Fuc(a1-4)]GlcNAc(b1-2)Man(a1-3)[Fuc(a1-2)Gal(b1-3)[Fuc(a1-4)]GlcNAc(b1-2)Man(a1-3)]Man(b1-4)GlcNAc(b1-4)GlcNAc
Method in brief: as §1

[20] = target: Fuc(a1-2)Gal(b1-3)[Fuc(a1-4)]GlcNAc(b1-2)Man(a1-3)[Fuc(a1-2)Gal(b1-3)[Fuc(a1-4)]GlcNAc(b1-2)Man(a1-6)]Man(b1-4)GlcNAc(b1-4)GlcNAc
Method in brief: as §1

[21] = target: Fuc(a1-2)Gal(b1-3)[Fuc(a1-4)]GlcNAc(b1-2)Man(a1-3)[Fuc(a1-2)Gal(b1-3)[Fuc(a1-4)]GlcNAc(b1-2)Man(a1-6)]Man(b1-4)GlcNAc(b1-4)[Fuc(a1-6)]GlcNAc(b1-4)[Fuc(a1-6)]GlcNAc
Method in brief: as §1

[22] = target: Fuc(a1-2)Gal(b1-3)[Fuc(a1-4)]GlcNAc(b1-3)[Fuc(a1-3)[Gal(b1-4)]GlcNAc(b1-6)]Gal(b1-4)Glc
Method in brief: as §1

[23] = target: Fuc(a1-2)Gal(b1-3)[Fuc(a1-4)]GlcNAc(b1-3)[Gal(b1-4)GlcNAc(b1-6)]Gal(b1-4)Glc
Method in brief: as §1

[24] = target: Fuc(a1-2)Gal(b1-4)Fuc(a1-3)]GlcNAc(b1-2)Man(a1-3)[Fuc(a1-2)Gal(b1-4)[Fuc(a1-3)]GlcNAc(b1-2)Man(a1-6)]Man(b1-4)GlcNAc(b1-4)GlcNAc
Method in brief: as §1

[25] = target: Fuc(a1-2)Gal(b1-4)Glc
Method in brief: as §1

[26] = target: Fuc(a1-2)Gal(b1-4)Glc6S
Method in brief: as §1

[27] = target: Fuc(a1-2)Gal(b1-4)GlcNAc
Method in brief: as §1

[28] = target: Fuc(a1-2)Gal(b1-4)GlcNAc(b1-2)Man
Method in brief: as §1

[29] = target: Fuc(a1-2)Gal(b1-4)GlcNAc(b1-2)Man(a1-3)[Fuc(a1-2)Gal(b1-4)GlcNAc(b1-2)Man(a1-6)]Man(b1-4)GlcNAc(b1-4)GlcNAc
Method in brief: as §1

[30] = target: Fuc(a1-2)Gal(b1-4)GlcNAc(b1-2)Man(a1-3)[Fuc(a1-2)Gal(b1-4)GlcNAc(b1-2)Man(a1-6)]Man(b1-4)GlcNAc(b1-4)[Fuc(a1-6)]GlcNAc
Method in brief: as §1

B1: PpFlo1 (Pichia pastoris) (protein)
chain: MGSSHHHHHHSSGLVPRGSHMQESGDGDISDSAYACDIDATRYDGFNATIYEFQPGDGRLTRDPVFMSTGYLNRTQLHSITGVTDPGFSIYTPGVPTTTLYGIPNVNWENLLLELKGYFRAEVSGDYGLSLRNIDDSAILFFGKETAFQCCNENSISNEASTDYSLFTIFRQEGDETTNLDSFTYTQYLEAGKYYPVRTFFVNIERHAVFNFTMTLPDGTELTDFHNYIYQFGALDEEQCQA
- glycan array binding signal (z-score) [1]: -0.417
- glycan array binding signal (z-score) [2]: -0.575
- glycan array binding signal (z-score) [3]: -0.102
- glycan array binding signal (z-score) [4]: -0.343
- glycan array binding signal (z-score) [5]: -0.068
- glycan array binding signal (z-score) [6]: -0.29
- glycan array binding signal (z-score) [7]: -0.322
- glycan array binding signal (z-score) [8]: -0.144
- glycan array binding signal (z-score) [9]: -0.23
- glycan array binding signal (z-score) [10]: -0.431
- glycan array binding signal (z-score) [11]: -0.455
- glycan array binding signal (z-score) [12]: -0.361
- glycan array binding signal (z-score) [13]: 0.121
- glycan array binding signal (z-score) [14]: -0.681
- glycan array binding signal (z-score) [15]: -0.398
- glycan array binding signal (z-score) [16]: -0.076
- glycan array binding signal (z-score) [17]: 0.053
- glycan array binding signal (z-score) [18]: -0.484
- glycan array binding signal (z-score) [19]: -0.426
- glycan array binding signal (z-score) [20]: 0.443
- glycan array binding signal (z-score) [21]: -0.095
- glycan array binding signal (z-score) [22]: -0.358
- glycan array binding signal (z-score) [23]: -0.099
- glycan array binding signal (z-score) [24]: 0.395
- glycan array binding signal (z-score) [25]: -0.289
- glycan array binding signal (z-score) [26]: -0.627
- glycan array binding signal (z-score) [27]: -0.381
- glycan array binding signal (z-score) [28]: -0.261
- glycan array binding signal (z-score) [29]: -0.373
- glycan array binding signal (z-score) [30]: 0.665

— the supplement of paper PMC8728848
